Results published in PubChem BioAssay AID485294 (National Center for Advancing Translational Sciences (NCATS), 2010).
The whole screen tested about 370,000 compounds, of which about 150 (0.041%) were called active. Inconclusive results, whose numbers are uncertain, are shown with a selection of clear calls. Calls come from the whole dose curve; as a rule, active = well fitted inhibition curve with a large enough effect; inconclusive = small, poorly fitted or top-dose-only effect; inactive = flat fitted curve, though single readings scatter. Potencies of inconclusive entries are left out as doubtful fits.

Target: Beta-lactamase (Escherichia coli (strain K12)) (UniProt P00811)
Sequence of UniProt P00811 (P00811 whole entry, looked up): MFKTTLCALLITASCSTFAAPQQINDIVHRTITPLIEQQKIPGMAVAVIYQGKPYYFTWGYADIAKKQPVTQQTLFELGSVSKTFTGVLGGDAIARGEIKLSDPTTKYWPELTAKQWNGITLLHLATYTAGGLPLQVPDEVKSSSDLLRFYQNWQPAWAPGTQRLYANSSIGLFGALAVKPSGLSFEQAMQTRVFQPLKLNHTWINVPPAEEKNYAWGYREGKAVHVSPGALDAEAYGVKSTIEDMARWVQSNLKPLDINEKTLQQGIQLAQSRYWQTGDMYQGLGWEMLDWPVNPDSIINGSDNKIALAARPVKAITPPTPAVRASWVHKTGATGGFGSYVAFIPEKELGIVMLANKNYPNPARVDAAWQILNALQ
Test: qHTS Inhibitors of AmpC Beta-Lactamase (assay with detergent); note: nearly all actives have a fitted effect of over 25% in size;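 for activity change, negative = inhibition: 0% = no-compound wells and -100% = no-enzyme wells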
Settings: AmpC hydrolysis of nitrocefin, absorbance 480 nm, 0.01% Triton; activity change, negative = inhibition: at 114 µM (top of the series)
Procedure, shortened: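 AmpC (5.3 nM in the dispensed reagent) in 20 mM phosphate pH 7.0 with 0.01% (detergent screen) or 0.0001% Triton X-100 was preincubated with compounds for 15 min at room temperature. Nitrocefin was then added from an 800 uM solution, and hydrolysis was followed at 480 nm.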
Potency is the fitted concentration of half-maximal effect; tags give direction and shape of the fitted curve.

Structure (SMILES)	activity change, negative = inhibition	Potency
CC(/C=N/NC(=O)c1nnn(-c2nonc2N)c1C(C)C)=C\c1ccco1	inactive: -4.9%	
COC(=O)CP(=O)(c1ccccc1)c1ccccc1		inconclusive [inhibitor, single point]
COc1cc(C(=O)Nc2nnc(C)s2)cc(OC)c1OC		inconclusive [inhibitor, full curve]
CCOC(=O)c1c(C)[nH]c(C(=O)COC(=O)CNC(=O)C2CCCCC2)c1C	inactive: 6.09%	
CSCCCc1cn([C@@H](CO)C(=O)NCCCCCCCCCCC(=O)N2CCNCC2)nn1		inconclusive [inhibitor, single point]
CCn1c(SCc2ccc([N+](=O)[O-])cc2)nnc1C(C)NC(=O)c1ccc(C)cc1 (centres undefined)	inactive: -11.3%	
CC(C)c1ccc2oc(=O)cc(CN3CCN(c4ccc(F)cc4)CC3)c2c1		inconclusive [inhibitor, full curve]
CCN(CC(=O)NC1CCS(=O)(=O)C1)C(=O)c1cc(OC)c(OC)c(OC)c1 (centres undefined)		inconclusive [inhibitor, full curve, poor fit]
CCCCCc1ccc(C(=O)CCCC)c(=S)[nH]1		inconclusive [inhibitor, single point]
CCOc1ccc(CN(C)CC(=O)Nc2cc(OC)c([N+](=O)[O-])cc2C)cc1		inconclusive [inhibitor, full curve]
O=C(NCc1ccc2c(c1)OCO2)c1c(F)c(F)c(F)c(F)c1F		inconclusive [inhibitor, full curve, poor fit]
CCC1CCCCN1C(=O)CSc1nnc(-c2ccc(Cl)s2)o1 (centres undefined)	inactive: 5.56%	
CCS(=O)(=O)N1CCN(C2Cc3ccccc3C2)CC1		inconclusive [inhibitor, partial curve]
CCCn1c(N/N=C\C=C\c2ccccc2)nc2c1c(=O)[nH]c(=O)n2C		inconclusive [inhibitor, full curve, poor fit]
Cc1c(N)cc[n+](CC(=O)c2ccccc2)c1C	inactive: 0.0244%	
C[C@H]1[C@H](OC(=O)CCC(=O)NCc2ccc(C(=O)O)cc2)O[C@@H]2O[C@@]3(C)CC[C@H]4[C@H](C)CC[C@@H]1C24OO3	inactive: 1.67%	
O=C(CSc1n[nH]c(=O)[nH]c1=O)c1ccc([N+](=O)[O-])cc1	inactive: 3.56%	
COc1ccc(Cl)cc1NC(=O)CCNS(=O)(=O)c1cccc2nonc12		inconclusive [inhibitor, partial curve, poor fit]
O=c1[nH]cnc2scc(-c3ccsc3)c12		inconclusive [inhibitor, full curve, poor fit]
CCc1cccc(C)c1NC(=O)CN(C)S(=O)(=O)c1cccc2nsnc12	inactive: -0.624%	
CCN1CCN(c2cc(C)c3cc(NC(=O)c4ccccc4F)ccc3n2)CC1		inconclusive [inhibitor, full curve, poor fit]
CC(=O)N1CCc2cc(Br)cc(S(=O)(=O)CCC(=O)Nc3ccc(C)cc3Cl)c21	inactive: 4.8%	
COc1ccc(/C=C/C(=O)OCC(=O)Nc2cc(S(=O)(=O)N(C)C)ccc2Cl)cc1	inactive: 2.23%	

Structure (SMILES)	activity change, negative = inhibition	Potency
CC(=O)c1ccc(-c2ccc(C(=O)Nc3nc(C)c(C(C)=O)s3)o2)cc1		inconclusive [inhibitor, full curve, poor fit]
COc1ccccc1N1CCN(c2cc(C)nc3nc(-c4ccc(Cl)cc4)nn23)CC1	inactive: 3.06%	
Cc1ccc(NC(=O)c2cc(S(=O)(=O)N3CCCC3)c[nH]2)c(C)c1		inconclusive [inhibitor, single point]
O=C(NC(NCc1cccnc1)C(Cl)(Cl)Cl)c1cccc2ccccc12 (centres undefined)		inconclusive [inhibitor, single point]
CN(C)C(=O)CSc1n[nH]c(=O)n1CCc1ccccc1		inconclusive [inhibitor, full curve]
O=C1C(C=NCCCN2CCOCC2)=C(O)c2ccccc21		inconclusive [inhibitor, full curve]
CC(C)CNC(=S)NNC(=O)CC(C)O (centres undefined)		inconclusive [inhibitor, full curve, poor fit]
O=C(CCc1ccc(S(=O)(=O)N2CCOCC2)cc1)Nc1cc(Cl)ccc1N1CCOCC1		inconclusive [inhibitor, partial curve, poor fit]
Cc1cccn2cc(CCNC(=O)c3ccc(Br)o3)nc12		inconclusive [inhibitor, full curve, poor fit]
O=C(c1cc(-n2cnnc2)ccc1Cl)N1CCN(c2nc(-c3ccccc3)cs2)CC1		inconclusive [inhibitor, full curve]
CC(C)OC(=O)CSc1nc2ncc(Cl)cc2[nH]1		inconclusive [inhibitor, full curve]
COC(=O)CCCC(=O)N1CCCC(C(=O)c2ccc(OC)cc2C)C1 (centres undefined)	inactive: 10.4%	
CCCc1nnc(NC(=O)CNc2ccc(F)cc2)s1		inconclusive [inhibitor, full curve]
COC(=O)C1=C(C)Nc2ncnn2C1c1ccc(C)o1 (centres undefined)	inactive: 0.225%	
CCOC(=O)N1CCN(C(=O)CN(c2cc(C)ccc2OC)S(=O)(=O)c2ccc(C)cc2)CC1	inactive: 1.9%	
Cc1oc(=O)c(NC(=O)c2ccc(Cl)cc2)cc1C(=O)c1ccccc1	inactive: -13.6%	
O=C(CNCc1ccco1)Nc1cccc(S(=O)(=O)N2CCCCC2)c1		inconclusive [inhibitor, full curve, poor fit]
Cc1ccc(-n2c(SCC(N)=O)nc3c([nH]c4ccccc43)c2=O)cc1		inconclusive [inhibitor, partial curve]
COc1ccc(Br)cc1CNC(=O)C1COc2ccccc2C1 (centres undefined)	inactive: -1.46%	
CC(C)(C)C(=O)n1nc(-c2ccccc2)oc1=O	inactive: -8.84%	
CSc1ncc(C(=O)Nc2cccnc2)c(C(F)(F)F)n1		inconclusive [inhibitor, full curve, poor fit]
O=C(N/N=C/c1ccco1)c1cccc(S(=O)(=O)Nc2ccccc2Cl)c1		inconclusive [inhibitor, full curve, poor fit]
CC(=C/c1ccc(C(C)C)cc1)/C=N/NC(=O)Cn1nnnc1N	inactive: 3.13%	

Structure (SMILES)	activity change, negative = inhibition	Potency
CCOC(=O)C1CCN(C(=O)COC(=O)c2cccc(F)c2)CC1	inactive: -3.32%	
CCc1ccc(NC(=O)c2cccc(C(=O)Nc3ccc(CC)cc3)n2)cc1		inconclusive [inhibitor, full curve, poor fit]
CCCc1cc(=O)oc2cc(C)c(CN3CCCC3)c(O)c12		inconclusive [inhibitor, full curve]
Cc1ccc(C(=O)NNC(=O)COc2ccc(Cl)cc2C)o1		inconclusive [inhibitor, single point]
CN(C)c1cc[n+](Cc2ccccc2)cc1		inconclusive [inhibitor, full curve, poor fit]
Oc1ccc(CN2CCC(Cc3ccccc3)CC2)c2cccnc12	inactive: 8.34%	
CCn1nc(C(=O)OCC(=O)N2c3ccccc3CC2C)c2ccccc2c1=O (centres undefined)		inconclusive [inhibitor, partial curve, poor fit]
CCn1c(=O)cc(SCC(=O)N2CCCCC2)c2ccccc21		inconclusive [inhibitor, full curve, poor fit]
OC(CNCc1ccc(-c2ccccc2)cc1)c1ccccc1 (centres undefined)		inconclusive [inhibitor, full curve]
COc1cccc(CNC(=O)CCCSc2ccccc2)c1		inconclusive [inhibitor, full curve, poor fit]
Cc1ccc(Cl)cc1N1CCN(CCN)CC1		inconclusive [inhibitor, full curve, poor fit]
Cc1cc(NC(=O)CSc2nc(CCC3CCCC3)nc3ccccc23)no1	inactive: 0.893%	
O=C(CCS(=O)(=O)c1ccc(Br)cc1)NC1CCCC1		inconclusive [inhibitor, full curve, poor fit]
COCC(=O)n1nc(-c2ccc(C)cc2)nc1NCc1ccc(F)cc1		inconclusive [inhibitor, full curve]
CN(C(=O)c1cccc(OC2CCN(S(=O)(=O)N(C)C)CC2)c1)C1CCOC1 (centres undefined)		inconclusive [inhibitor, full curve, poor fit]
COc1ccc(N2CCN(c3cc(=O)n(Cc4ccc(F)cc4)c(=O)[nH]3)CC2)cc1		inconclusive [inhibitor, partial curve, poor fit]
Cc1cc(N)n(C2CCN(C)CC2)n1		inconclusive [inhibitor, full curve, poor fit]
O=c1cc(N2CCOCC2)[nH]c(=O)n1Cc1ccc(F)cc1		inconclusive [inhibitor, full curve, poor fit]
CCOc1ccc(-c2cc(C(=O)N3CCN(c4cccc(C(F)(F)F)c4)CC3)c3ccccc3n2)cc1	inactive: 3.64%	
CCOc1ccccc1N(CC(=O)Nc1ccc(OC)c(Cl)c1)S(=O)(=O)c1ccccc1	inactive: -6.06%	
O=C(NC1CCCCCCC1)c1ccc2c(c1)OCO2		inconclusive [inhibitor, full curve, poor fit]
COc1ccc(N2CC(C(=O)NCCc3ccc(Cl)cc3)CC2=O)cc1 (centres undefined)		inconclusive [inhibitor, partial curve]
O=C(Nc1ccccc1)N1CCN(c2ccc(C(F)(F)F)cn2)CC1		inconclusive [inhibitor, partial curve, poor fit]
